In US20220306753A1 (JN BIOSCIENCES, published 2022):

T1: CD86-FLAG-GPI (human)
T1 construct: also called CHO-K1/CD86 cells
T1 chain: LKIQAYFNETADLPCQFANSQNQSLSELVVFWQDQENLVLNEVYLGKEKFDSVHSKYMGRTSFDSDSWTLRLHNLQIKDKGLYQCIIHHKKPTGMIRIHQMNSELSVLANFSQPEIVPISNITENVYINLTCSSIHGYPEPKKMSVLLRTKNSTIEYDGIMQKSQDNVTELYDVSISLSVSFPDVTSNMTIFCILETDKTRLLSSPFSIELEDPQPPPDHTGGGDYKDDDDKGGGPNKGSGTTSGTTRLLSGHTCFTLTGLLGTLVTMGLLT

T2: CD80-FLAG-GPI (human)
T2 construct: also called CHO-K1/CD80 cells
T2 chain: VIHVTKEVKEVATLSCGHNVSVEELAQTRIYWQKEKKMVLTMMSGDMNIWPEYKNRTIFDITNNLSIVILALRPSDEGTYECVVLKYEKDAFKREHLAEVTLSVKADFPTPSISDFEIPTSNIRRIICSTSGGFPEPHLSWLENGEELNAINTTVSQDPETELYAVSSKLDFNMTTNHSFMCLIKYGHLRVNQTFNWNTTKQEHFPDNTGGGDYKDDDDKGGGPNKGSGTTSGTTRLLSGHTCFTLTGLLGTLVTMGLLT

B1: HuABC2-Ck-CTLA4YE (other)
heavy: EVQLVESGGGLVQPGGSLRLSCAASGFTFSDFYMEWVRQAPGKGLEWIAASRNKANDYTTEYSASVKGRFIVSRDDSKNSLYLQMNSLKTEDTAVYYCARSYYRYDGMDYWGQGTTVTVSS[gap - human IgG1 constant region with changes]
light: EIVLTQSPATLSLSPGERATLSCSAISSVSYMYWYQQKPGQAPRLLIYDTSNLVSGVPARFSGSGSGTDYTLTISSLEPEDFAVYYCQQWNTYPYTFGGGTKVEIKRTVAAPSVFIFPPSDEQLKSGTASVVCLLNNFYPREAKVQWKVDNALQSGNSQESVTEQDSKDSTYSLSSTLTLSKADYEKHKVYACEVTHQGLSSPVTKSFNRGECSGGGGSGMHVAQPAVVLASSRGIASFVCEYASPGKYTEVRVTVLRQADSQVTEVCAATYMMGNELTFLDDSICTGTSSGNQVNLTIQGLRAMDTGLYICKVELMYPPPYYEGIGNGTQIYVIDPEPCPDSD
notes: heavy chain with L234A/L235A; encoded by pHC623
B2: HuABC2-CTLA4YE-VH (other)
heavy: MHVAQPAVVLASSRGIASFVCEYASPGKYTEVRVTVLRQADSQVTEVCAATYMMGNELTFLDDSICTGTSSGNQVNLTIQGLRAMDTGLYICKVELMYPPPYYEGIGNGTQIYVIDPEPCPDSDSGGGGSGGGGSEVQLVESGGGLVQPGGSLRLSCAASGFTFSDFYMEWVRQAPGKGLEWIAASRNKANDYTTEYSASVKGRFIVSRDDSKNSLYLQMNSLKTEDTAVYYCARSYYRYDGMDYWGQGTTVTVSS[gap - human IgG1 constant region with changes]
light: EIVLTQSPATLSLSPGERATLSCSAISSVSYMYWYQQKPGQAPRLLIYDTSNLVSGVPARFSGSGSGTDYTLTISSLEPEDFAVYYCQQWNTYPYTFGGGTKVEIKRTVAAPSVFIFPPSDEQLKSGTASVVCLLNNFYPREAKVQWKVDNALQSGNSQESVTEQDSKDSTYSLSSTLTLSKADYEKHKVYACEVTHQGLSSPVTKSFNRGEC
notes: encoded by pHC640
B3: HuABC2-CTLA4YE-Vk (other)
heavy: EVQLVESGGGLVQPGGSLRLSCAASGFTFSDFYMEWVRQAPGKGLEWIAASRNKANDYTTEYSASVKGRFIVSRDDSKNSLYLQMNSLKTEDTAVYYCARSYYRYDGMDYWGQGTTVTVSS[gap - human IgG1 constant region with changes]
light: MHVAQPAVVLASSRGIASFVCEYASPGKYTEVRVTVLRQADSQVTEVCAATYMMGNELTFLDDSICTGTSSGNQVNLTIQGLRAMDTGLYICKVELMYPPPYYEGIGNGTQIYVIDPEPCPDSDSGGGGSGGGGSEIVLTQSPATLSLSPGERATLSCSAISSVSYMYWYQQKPGQAPRLLIYDTSNLVSGVPARFSGSGSGTDYTLTISSLEPEDFAVYYCQQWNTYPYTFGGGTKVEIKRTVAAPSVFIFPPSDEQLKSGTASVVCLLNNFYPREAKVQWKVDNALQSGNSQESVTEQDSKDSTYSLSSTLTLSKADYEKHKVYACEVTHQGLSSPVTKSFNRGEC
notes: heavy chain with L234A/L235A; encoded by pHC641; also called HuABC2-CTLA4-Vk
B4: HuABC101-CTLA4YE-VH (other)
heavy: MHVAQPAVVLASSRGIASFVCEYASPGKYTEVRVTVLRQADSQVTEVCAATYMMGNELTFLDDSICTGTSSGNQVNLTIQGLRAMDTGLYICKVELMYPPPYYEGIGNGTQIYVIDPEPCPDSDSGGGGSGGGGSQVQLQESGPGLVKPSQTLSLTCTVSGYSITNDNHWWNWIRQHPGKGLEWMGYIDSSGSSDNNPSLKSQITISRDTSKNQLSLKLSSVTAADTAVYYCARGGGRDYYGMDYWGQGTTVTVSS[gap - human IgG1 constant region]
light: DIVMTQSPDSLGVSLGERATINCRASQSVSTSSYSYVHWYQQKPGQPPKLLIKYASNLESGVPDRFSGSGSGTDFTLTISSLQAEDVAVYYCQHSWDIPFTFGQGTKLEIKRTVAAPSVFIFPPSDEQLKSGTASVVCLLNNFYPREAKVQWKVDNALQSGNSQESVTEQDSKDSTYSLSSTLTLSKADYEKHKVYACEVTHQGLSSPVTKSFNRGEC
notes: encoded by pHC642; transient HEK293 supernatant
B5: HuABC101-CH3-CTLA4YE (other)
heavy: QVQLQESGPGLVKPSQTLSLTCTVSGYSITNDNHWWNWIRQHPGKGLEWMGYIDSSGSSDNNPSLKSQITISRDTSKNQLSLKLSSVTAADTAVYYCARGGGRDYYGMDYWGQGTTVTVSS[gap - human IgG1 constant region]GGGGSGMHVAQPAVVLASSRGIASFVCEYASPGKYTEVRVTVLRQADSQVTEVCAATYMMGNELTFLDDSICTGTSSGNQVNLTIQGLRAMDTGLYICKVELMYPPPYYEGIGNGTQIYVIDPEPCPDSD
light: B4 light
notes: encoded by pHC630; transient HEK293 supernatant
B6: HuABC77D-CTLA4YE-VH (other)
heavy: MHVAQPAVVLASSRGIASFVCEYASPGKYTEVRVTVLRQADSQVTEVCAATYMMGNELTFLDDSICTGTSSGNQVNLTIQGLRAMDTGLYICKVELMYPPPYYEGIGNGTQIYVIDPEPCPDSDSGGGGSGGGGSEVQLVESGGGLVQPGGSLRLSCAASGFDFSRYWMSWVRQAPGKGLEWIGEINPDSSTINYAPSLKDRFTISRDNAKNSLYLQMNSLRAEDTAVYYCARHDYDEGIYFDYWGQGTTVTVSS[gap - human IgG1 constant region with changes]
light: DIQMTQSPSSLSASVGDRVTITCSASSRVIYMHWYQQKPGKAPKRWIYDTSKLASGVPSRFSGSGSGTEFTLTISSLQPEDFATYYCQQWSSNPPTFGGGTKVEIKRTVAAPSVFIFPPSDEQLKSGTASVVCLLNNFYPREAKVQWKVDNALQSGNSQESVTEQDSKDSTYSLSSTLTLSKADYEKHKVYACEVTHQGLSSPVTKSFNRGEC
notes: encoded by pHC644; transient HEK293 supernatant

How the values were obtained:
CD86-FLAG-GPI [1] = molecular target: T1, CD86-FLAG-GPI; assay: flow cytometry on CHO-K1/CD86 cells, binder at 625 ng/ml, PE anti-human IgG
Protocol: (§1) CHO-K1 stable transfectants expressing CD80-FLAG-GPI (CHO-K1/CD80) and CD86-FLAG-GPI (CHO-K1/CD86) were generated by electroporation with pFCm553 and pFCm554, respectively, as described above. Binding of HuABC2-CH3-CTLA4YE, HuABC2-Ck-CTLA4YE, HuABC2-CTLA4YE-VH and HuABC2-CTLA4YE-Vk to CHO-K1/CD80 and CHO-K1/CD86 cells was analyzed by flow cytometry. Belatacept (also known as LEA29Y and Nulojix; SEQ ID NO:49), which is a CTLA4-Ig fusion protein carrying a substitution of an alanine residue to a tyrosine residue at position 29 (A29Y) and another substitution of a leucine residue to a glutamate residue at position 104 (L104E) of SEQ ID NO:10 (Larsen et al., Am. J. Transplant. 5:443-453, 2005; Oshima et al., Protein Eng. Des. Sel. 29:159-167, 2016), was purchased from Creative Biomart (Cat. No. THP-0109, Shirley, N.Y.) and used as a reference in the experiments.
(§2) Purified test samples (HuABC2-CH3-CTLA4YE, HuABC2-Ck-CTLA4YE, HuABC2-CTLA4YE-VH, and HuABC2-CTLA4YE-Vk) and belatacept, starting at 10 μg/mland five steps of 4-fold serial dilutions, were incubated with CHO-K1/CD80 or CHO-K1/CD86 cells in FACS Buffer (PBS containing 0.5% BSA and 0.05% sodium azide) for 30 min at 4° C. After washing with FACS Buffer, cells were incubated with PE-labeled goat anti-human IgG antibody (SouthernBiotech, Birmingham, Ala.) in FACS Buffer for 20 min at 4° C. After washing and suspension in FACS Buffer, stained cells were subjected to flow cytometry.
The binding patterns of HuABC2-CH3-CTLA4YE, HuABC2-Ck-CTLA4YE, HuABC2-CTLA4YE-VH, HuABC2-CTLA4YE-Vk and belatacept to CHO-K1/CD86 cells are shown in FIG. 9B. Like the case with CHO-K1/CD80 cells, while the binding of each of HuABC2-CTLA4YE-VH and HuABC2-CTLA4YE-Vk to CD86 was only slightly weaker than the binding of belatacept, the binding of HuABC2-CH3-CTLA4YE and HuABC2-Ck-CTLA4YE was a lot weaker than the binding of belatacept.

CD80-FLAG-GPI [2] = molecular target: T2, CD80-FLAG-GPI; assay: flow cytometry on CHO-K1/CD80 cells, binder at 625 ng/ml, PE anti-human IgG
Protocol: as §1, §2
The binding patterns of HuABC2-CH3-CTLA4YE, HuABC2-Ck-CTLA4YE, HuABC2-CTLA4YE-VH, HuABC2-CTLA4YE-Vk and belatacept to CHO-K1/CD80 cells are shown in FIG. 9A. While the binding of each of HuABC2-CTLA4YE-VH and HuABC2-CTLA4YE-Vk to CD80 was only slightly weaker than the binding of belatacept, the binding of HuABC2-CH3-CTLA4YE and HuABC2-Ck-CTLA4YE was a lot weaker than that of belatacept.

CD80-FLAG-GPI [3] = molecular target: T2, CD80-FLAG-GPI; assay: flow cytometry on CHO-K1/CD80 cells, binder at 200 ng/ml
Protocol: as §2
(§3) The two expression vectors (pHC642 and pHC630) were individually transfected into HEK293 cells as described above. Their expression level in culture supernatants was measured by sandwich ELISA as described above. Binding of transiently expressed HuABC101-CTLA4YE-VH and HuABC101-CH3-CTLA4YE to CD80 and CD86 was analyzed by flow cytometry as described above. Belatacept was used as a reference for binding to CD80 and CD86.
(§4) Binding of HuABC101-CH3-CTLA4YE to each of CD80 and CD86 was much weaker than the binding of HuABC101-CTLA4YE-VH.

CD86-FLAG-GPI [4] = molecular target: T1, CD86-FLAG-GPI; assay: flow cytometry on CHO-K1/CD86 cells, binder at 200 ng/ml
Protocol: as §2, §3, §4

CD80-FLAG-GPI [5] = molecular target: T2, CD80-FLAG-GPI; assay: flow cytometry on CHO-K1/CD80 cells, binder at 500 ng/ml
Protocol: as §2
(§5) The two expression vectors (pHC644 and pHC645) were individually transfected into HEK293 cells as described above. Their expression level in culture supernatants was measured by sandwich ELISA as described above. Binding of HuABC77D-CH3-CTLA4YE and HuABC77D-CTLA4YE-VH to CHO-K1/CD80 and CHO-K1/CD86 cells was analyzed by flow cytometry as described above. Belatacept was used as a reference for binding to CD80 and CD86. The test samples were used at 500 ng/ml and four steps of 3-fold serial dilutions.
(§6) The results of binding to CHO-K1/CD80 and CHO-K1/CD86 cells are shown in FIGS. 13A and B, respectively.

CD86-FLAG-GPI [6] = molecular target: T1, CD86-FLAG-GPI; assay: flow cytometry on CHO-K1/CD86 cells, binder at 500 ng/ml
Protocol: as §2, §5, §6

| mean channel fluorescence (MCF) (CD86-FLAG-GPI [1]) | mean channel fluorescence (MCF) (CD80-FLAG-GPI [2]) | mean channel fluorescence (MCF) (CD80-FLAG-GPI [3]) | mean channel fluorescence (MCF) (CD86-FLAG-GPI [4]) | further results | Binder |
| --- | --- | --- | --- | --- | --- |
| 13 | 307 | – | – | – | B1 |
| 1290 | 1310 | – | – | – | B2 |
| 956 | 1310 | – | – | – | B3 |
| – | – | 1160 | 745 | – | B4 |
| – | – | 291 | 108 | – | B5 |
| – | – | – | – | mean channel fluorescence (MCF) (CD80-FLAG-GPI [5]): 4590; mean channel fluorescence (MCF) (CD86-FLAG-GPI [6]): 794 | B6 |
